# In the supplement of paper PMC8728848:
# The list shows a part of the results.
# B1: PX14375F-bfa-539-21-539 (Bacteroides fragilis) (protein)
# chain: EDFLQKDPPSSPSQSVFWQKKSDFESALAGTYSVMYSGVFSQIMPCLDGLTDNAIVQHSEGTYGWAKTIAQGDLTPNQGGFVTDIYGNCYKGIARVHILMEQLDQYTGSDISADEKKFMLAQCKALRGYFYSWLYQCYKEVPVVTQSLDLNTMYQPKATRAEVLNRVMTDYDEAISELPDKLYSDSQTSGRFTVSAVKALKARILLFDAYDSNGKAISSKMEEVLTLLQSIKGYSLAARVRDNFISEKQLASPEIMFSVRFLRPNLTHSMDLYYGAWAVLDPTRNMVDAFECTDGKPWGESPLTVRPDESILYGNDDALKKAERAKMFMNRDRRLYESVNHSMMANFVDDGFKDEEVQVNESNNKGPTGFSALKYVQPTDVTPGYSTVSDADIVVLRYAHVLLMIAEAENEAHGATTTALNAINEVRTRSGQPAIEAGISQDDLRERIRNEWRIETCFEGLRYFQLKRWKLMDKRVNGVEDPAYPGYIKVYKPAFEFFPIPQSEIDKAGGVLKQDPAYE
# Tests used:
# Assay in all cases: glycan array binding signal (z-score within array); higher = stronger binding
# Details in all cases: glycan notation: IUPAC condensed, linker removed
# [1] = target: Fuc(a1-2)Gal(b1-4)GlcNAc(b1-3)Gal(b1-4)GlcNAc(b1-3)Gal(b1-4)GlcNAc
# In short: (§1)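 Glycan array data were curated from 3228 arrays in the Consortium for Functional Glycomics database and kept only where the protein sequence was available. Glycan names were converted to IUPAC-condensed notation, and columns mapping to the same glycan were averaged. The binding signal is a within-array Z-score, averaged across arrays of the same protein sequence at different concentrations or buffers and across linkers. Negative Z-scores can be read as non-binding.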
# [2] = target: Fuc(a1-2)Gal(b1-4)GlcNAc(b1-3)GalNAc
# In short: as §1
# [3] = target: Fuc(a1-2)Gal(b1-4)GlcNAc(b1-3)[Fuc(a1-2)Gal(b1-4)GlcNAc(b1-6)]GalNAc
# In short: as §1
# [4] = target: Fuc(a1-2)Gal(b1-4)GlcNAc(b1-3)[Fuc(a1-3)[Gal(b1-4)]GlcNAc(b1-6)]Gal(b1-4)Glc
# In short: as §1
# [5] = target: Fuc(a1-2)Gal(b1-4)GlcNAc(b1-6)GalNAc
# In short: as §1
# [6] = target: Fuc(a1-2)Gal(b1-4)GlcNAc6S
# In short: as §1
# [7] = target: Fuc(a1-2)Gal(b1-4)[Fuc(a1-3)]GlcNAc
# In short: as §1
# [8] = target: Fuc(a1-2)Gal(b1-4)[Fuc(a1-3)]GlcNAc(b1-2)Man(a1-3)[Fuc(a1-2)Gal(b1-4)[Fuc(a1-3)]GlcNAc(b1-2)Man(a1-6)]Man(b1-4)GlcNAc(b1-4)[Fuc(a1-6)]GlcNAc
# In short: as §1
# [9] = target: Fuc(a1-2)Gal(b1-4)[Fuc(a1-3)]GlcNAc(b1-2)[Fuc(a1-2)Gal(b1-4)[Fuc(a1-3)]GlcNAc(b1-4)]Man(a1-3)[Fuc(a1-2)Gal(b1-4)[Fuc(a1-3)]GlcNAc(b1-2)Man(a1-6)]Man(b1-4)GlcNAc(b1-4)GlcNAc
# In short: as §1
# [10] = target: Fuc(a1-2)Gal(b1-4)[Fuc(a1-3)]GlcNAc(b1-3)Gal(b1-4)[Fuc(a1-3)]GlcNAc
# In short: as §1
# [11] = target: Fuc(a1-2)Gal(b1-4)[Fuc(a1-3)]GlcNAc(b1-3)Gal(b1-4)[Fuc(a1-3)]GlcNAc(b1-3)Gal(b1-4)[Fuc(a1-3)]GlcNAc
# In short: as §1
# [12] = target: Fuc(a1-2)Gal(b1-4)[Fuc(a1-3)]GlcNAc(b1-3)GalNAc
# In short: as §1
# [13] = target: Fuc(a1-2)Gal(b1-4)[Fuc(a1-3)]GlcNAc(b1-3)[Neu5Ac(a2-6)Gal(b1-4)GlcNAc(b1-6)]Gal(b1-4)Glc
# In short: as §1
# [14] = target: Fuc(a1-2)Gal3S(b1-4)GlcNAc
# In short: as §1
# [15] = target: Fuc(a1-2)Gal6S(b1-3)GlcNAc
# In short: as §1
# [16] = target: Fuc(a1-2)Gal6S(b1-3)GlcNAc6S
# In short: as §1
# Fuc(a1-2)Gal6S(b1-4)Glc = target: Fuc(a1-2)Gal6S(b1-4)Glc
# In short: as §1
# [17] = target: Fuc(a1-2)Gal6S(b1-4)Glc6S
# In short: as §1
# Fuc(a1-2)[Gal(a1-3)]Gal = target: Fuc(a1-2)[Gal(a1-3)]Gal
# In short: as §1
# [18] = target: Fuc(a1-2)[Gal(a1-3)]Gal(b1-3)GalNAc
# In short: as §1
# [19] = target: Fuc(a1-2)[Gal(a1-3)]Gal(b1-3)GalNAc(b1-3)Gal(a1-4)Gal(b1-4)Glc
# In short: as §1
# [20] = target: Fuc(a1-2)[Gal(a1-3)]Gal(b1-3)GlcNAc
# In short: as §1
# [21] = target: Fuc(a1-2)[Gal(a1-3)]Gal(b1-3)GlcNAc(b1-2)Man(a1-3)[Fuc(a1-2)[Gal(a1-3)]Gal(b1-3)GlcNAc(b1-2)Man(a1-6)]Man(b1-4)GlcNAc(b1-4)GlcNAc
# In short: as §1
# [22] = target: Fuc(a1-2)[Gal(a1-3)]Gal(b1-3)GlcNAc(b1-2)Man(a1-3)[Fuc(a1-2)[Gal(a1-3)]Gal(b1-3)GlcNAc(b1-2)Man(a1-6)]Man(b1-4)GlcNAc(b1-4)[Fuc(a1-6)]GlcNAc
# In short: as §1
# [23] = target: Fuc(a1-2)[Gal(a1-3)]Gal(b1-3)GlcNAc(b1-3)GalNAc
# In short: as §1
# [24] = target: Fuc(a1-2)[Gal(a1-3)]Gal(b1-3)GlcNAc(b1-6)GalNAc
# In short: as §1
# [25] = target: Fuc(a1-2)[Gal(a1-3)]Gal(b1-4)Glc
# In short: as §1
# [26] = target: Fuc(a1-2)[Gal(a1-3)]Gal(b1-4)GlcNAc
# In short: as §1
# [27] = target: Fuc(a1-2)[Gal(a1-3)]Gal(b1-4)GlcNAc(b1-2)Man
# In short: as §1
# [28] = target: Fuc(a1-2)[Gal(a1-3)]Gal(b1-4)GlcNAc(b1-2)Man(a1-3)[Fuc(a1-2)[Gal(a1-3)]Gal(b1-4)GlcNAc(b1-2)Man(a1-6)]Man(b1-4)GlcNAc(b1-4)GlcNAc
# In short: as §1
binder,measurement,setting,value
B1,glycan array binding signal (z-score),[1],-0.687
same,glycan array binding signal (z-score),[2],0.334
same,glycan array binding signal (z-score),[3],0.212
same,glycan array binding signal (z-score),[4],0.539
same,glycan array binding signal (z-score),[5],0.17
same,glycan array binding signal (z-score),[6],-0.173
same,glycan array binding signal (z-score),[7],-0.409
same,glycan array binding signal (z-score),[8],0.094
same,glycan array binding signal (z-score),[9],1.49
same,glycan array binding signal (z-score),[10],-0.506
same,glycan array binding signal (z-score),[11],-0.644
same,glycan array binding signal (z-score),[12],0.387
same,glycan array binding signal (z-score),[13],-0.43
same,glycan array binding signal (z-score),[14],-0.537
same,glycan array binding signal (z-score),[15],-0.477
same,glycan array binding signal (z-score),[16],0.375
same,glycan array binding signal (z-score),Fuc(a1-2)Gal6S(b1-4)Glc,0.29
same,glycan array binding signal (z-score),[17],0.071
same,glycan array binding signal (z-score),Fuc(a1-2)[Gal(a1-3)]Gal,0.615
same,glycan array binding signal (z-score),[18],-0.04
same,glycan array binding signal (z-score),[19],0.042
same,glycan array binding signal (z-score),[20],-0.642
same,glycan array binding signal (z-score),[21],-0.142
same,glycan array binding signal (z-score),[22],-0.346
same,glycan array binding signal (z-score),[23],-0.834
same,glycan array binding signal (z-score),[24],-0.329
same,glycan array binding signal (z-score),[25],-0.355
same,glycan array binding signal (z-score),[26],-0.7
same,glycan array binding signal (z-score),[27],-0.35
same,glycan array binding signal (z-score),[28],6.22
